We go through 58 compounds from publication PMC4336329 (PLoS ONE, 2015).

The whole screen tested about 310,000 compounds, of which about 14,000 (4.5%) showed an effect of 50% or more. Effects have a minus sign here. This is one part of the list.
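Also: peak tail current of the secondary pulse compared with the same well before compound.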

human ether-à-go-go-related gene (hERG) potassium channel, sequence (Q12809 whole entry, looked up): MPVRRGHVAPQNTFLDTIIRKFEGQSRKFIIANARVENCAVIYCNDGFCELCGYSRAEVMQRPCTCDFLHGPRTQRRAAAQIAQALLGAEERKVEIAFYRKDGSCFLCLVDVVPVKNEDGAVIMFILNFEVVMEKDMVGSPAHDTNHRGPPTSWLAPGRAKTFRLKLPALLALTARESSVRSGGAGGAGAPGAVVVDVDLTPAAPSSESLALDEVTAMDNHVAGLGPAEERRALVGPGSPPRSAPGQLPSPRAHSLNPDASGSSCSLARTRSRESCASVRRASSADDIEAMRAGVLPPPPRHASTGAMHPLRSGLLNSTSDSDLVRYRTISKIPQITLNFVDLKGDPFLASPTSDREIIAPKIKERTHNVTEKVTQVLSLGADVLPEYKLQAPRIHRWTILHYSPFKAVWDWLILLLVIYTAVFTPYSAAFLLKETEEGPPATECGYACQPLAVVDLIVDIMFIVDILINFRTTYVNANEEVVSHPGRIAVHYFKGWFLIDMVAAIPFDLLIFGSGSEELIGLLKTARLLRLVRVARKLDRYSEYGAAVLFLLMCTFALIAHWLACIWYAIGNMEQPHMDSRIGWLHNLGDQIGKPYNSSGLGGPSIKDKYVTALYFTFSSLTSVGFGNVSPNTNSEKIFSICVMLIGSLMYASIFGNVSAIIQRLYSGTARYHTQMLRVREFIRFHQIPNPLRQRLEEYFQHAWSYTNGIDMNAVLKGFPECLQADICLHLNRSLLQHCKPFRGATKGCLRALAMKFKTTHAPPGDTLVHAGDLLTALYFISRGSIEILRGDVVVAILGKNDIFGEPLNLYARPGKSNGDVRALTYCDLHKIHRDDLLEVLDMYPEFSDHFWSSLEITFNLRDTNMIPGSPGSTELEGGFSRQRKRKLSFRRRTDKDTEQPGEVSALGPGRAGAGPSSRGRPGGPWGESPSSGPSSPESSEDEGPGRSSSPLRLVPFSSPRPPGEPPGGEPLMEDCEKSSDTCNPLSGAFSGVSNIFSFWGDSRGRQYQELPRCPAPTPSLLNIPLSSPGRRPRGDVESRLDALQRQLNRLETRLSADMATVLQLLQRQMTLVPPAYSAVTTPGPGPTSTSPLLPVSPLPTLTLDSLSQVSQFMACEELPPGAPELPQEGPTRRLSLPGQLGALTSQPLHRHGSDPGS

This test has as its target human ether-à-go-go-related gene (hERG) potassium channel (human, UniProt Q12809). In words: primary screen, population patch clamp on CHO cells stably expressing hERG.
Regarding `CCOc1ccc(C2C(C(=O)OC)=C(C)N=C3SCCC(=O)N32)cc1OCC` (stereo not shown), the “hERG current change (%, negative = inhibition) at 10uM” value was determined as 0.039%.

On to `O=C(Cc1cccc2ccccc12)N/N=C/c1ccc(OC(=O)/C=C/c2ccco2)cc1`, for which the “hERG current change (%, negative = inhibition) at 10uM” value amounted to 8.25%.

For the compound `CCOc1ccc(CN(C)CC(=O)Nc2cc(C)c(C)cc2[N+](=O)[O-])cc1.CN(C)C=O`, the “hERG current change (%, negative = inhibition) at 10uM” value is 9.36%.

On to `CCN1CCN=C1Nc1ccccc1`, for which the “hERG current change (%, negative = inhibition) at 10uM” value was determined as 8.49%.

Take `CN(C)C(CNC(=O)CCNC(=O)c1ccccc1Cl)c1ccco1` (stereo not shown): the “hERG current change (%, negative = inhibition) at 10uM” value came out at 5.24%.

Regarding `COc1ccc(-c2csc(Cc3nnc(N4CCOCC4)n3-c3ccccc3)n2)cc1`, the “hERG current change (%, negative = inhibition) at 10uM” value is on record as -2.17%.

Take `COc1ccc2c(c1)C(c1ccccc1)=NNC(c1ccco1)=N2`: the “hERG current change (%, negative = inhibition) at 10uM” value is listed as -15.7%.

Take `O=S(=O)(NC1CCCC1)c1ccc(S(=O)(=O)N2CCN(c3ccccc3)CC2)cc1`: the “hERG current change (%, negative = inhibition) at 10uM” value is -5.74%.

For the compound `COc1cccc(NC(=O)C2CC2)c1`, the “hERG current change (%, negative = inhibition) at 10uM” value amounted to 2.97%.

`COc1cc(N/C(=N/S(=O)(=O)c2ccccc2)c2ccccc2)ncn1`: the “hERG current change (%, negative = inhibition) at 10uM” value was determined as 6.32%.

For the compound `O=C(CNC(=O)c1ccc(Br)o1)Nc1ncccc1O`, the “hERG current change (%, negative = inhibition) at 10uM” value was found to be 6.38%.

For the compound `CCC1CCC(N2CCN(c3cccc(OC)c3)CC2)CC1` (stereo not shown), the “hERG current change (%, negative = inhibition) at 10uM” value is given as -33.7%.

Regarding `CCn1c(=O)c2ccccc2n(CC(=O)N2CCCc3ccccc32)c1=O`, the “hERG current change (%, negative = inhibition) at 10uM” value came out at 5.99%.

`O=C(CSc1cccc2cccc(Cl)c12)NC1=NCCS1`: the “hERG current change (%, negative = inhibition) at 10uM” value worked out at 8.28%.

For the compound `CCN1C(=O)C(NC(C)=O)c2cc(OC)ccc21` (stereo not shown), the “hERG current change (%, negative = inhibition) at 10uM” value was found to be 7.82%.

As to `Nc1nc(SCC(=O)Nc2ccc(Cl)cc2C(F)(F)F)n[nH]1`, the “hERG current change (%, negative = inhibition) at 10uM” value was 22%.

Regarding `CC(=O)C1=C(O)C(=O)OC1c1ccc(Cl)cc1` (stereo not shown), the “hERG current change (%, negative = inhibition) at 10uM” value is listed as 7.92%.

As for `CCOC(=O)c1sc(N(C)C)nc1-c1ccccc1`, the “hERG current change (%, negative = inhibition) at 10uM” value turned out to be 3.34%.

For the compound `CCC(=O)Nc1ccc(N2CCOCC2)c(S(=O)(=O)Nc2ccc(OC)cc2)c1`, the “hERG current change (%, negative = inhibition) at 10uM” value stood at 3.09%.

As to `CCN1CCN(CCc2nc3cc([N+](=O)[O-])ccc3n2C)CC1`, the “hERG current change (%, negative = inhibition) at 10uM” value is given as -16.9%.

With `CCOc1ccc(OCC)c(NC(=O)Cn2cccc2)c1`, the “hERG current change (%, negative = inhibition) at 10uM” value is -4.95%.

With `CCOC(=O)C1CCN(C(c2cccs2)c2sc3nc(C)nn3c2O)CC1` (stereo not shown), the “hERG current change (%, negative = inhibition) at 10uM” value was -12.6%.

Regarding `CC(/C=C/c1ccc2c(c1)OCO2)=N\NC(=O)c1ccccc1`, the “hERG current change (%, negative = inhibition) at 10uM” value is recorded as 10.3%.

As for `COc1ccc(CN(Cc2cc3cccc(C)c3n3nnnc23)C(=O)N2CCOCC2)cc1`, the “hERG current change (%, negative = inhibition) at 10uM” value is -1.26%.

For `CC(Oc1ccc(Cl)cc1)c1ccnn1S(=O)(=O)c1ccc(Cl)cc1` (stereo not shown), the “hERG current change (%, negative = inhibition) at 10uM” value is 2.97%.

Regarding `CC(CC(=O)NCCc1ccc(S(N)(=O)=O)cc1)c1ccccc1` (stereo not shown), the “hERG current change (%, negative = inhibition) at 10uM” value is reported as 19.3%.

Take `Cc1ccc(C)c(N=Cc2cc3c(cc2[N+](=O)[O-])OCO3)c1`: the “hERG current change (%, negative = inhibition) at 10uM” value turned out to be 9.15%.

With `COc1ccc([C@H]2CC(=O)C=C(c3cc(C)ccc3F)C2)cc1`, the “hERG current change (%, negative = inhibition) at 10uM” value was -3.08%.

Take `C/C(=C/C(=O)N1CCc2ccccc21)C(=O)O`: the “hERG current change (%, negative = inhibition) at 10uM” value amounted to 5.43%.

For the compound `CP(=O)(Nc1cc(Cl)ccc1Cl)c1nc2c(s1)CCCC2` (stereo not shown), the “hERG current change (%, negative = inhibition) at 10uM” value was -23.3%.

As to `COc1ccc(N(CC(=O)NCc2ccc(Cl)cc2)S(=O)(=O)c2ccccc2[N+](=O)[O-])c(OC)c1`, the “hERG current change (%, negative = inhibition) at 10uM” value is reported as -1.15%.

In the case of `CC1(C)CC(NC(=O)C23CCC(C)(/C(=N/O)C2)C3(C)C)CC(C)(C)N1` (stereo not shown), the “hERG current change (%, negative = inhibition) at 10uM” value is -3.78%.

Turning to `c1cc(-c2nnc(-c3ccncc3)o2)ccn1`, the “hERG current change (%, negative = inhibition) at 10uM” value is listed as 7.92%.

Consider `CCc1nnc(NS(=O)(=O)c2ccc(NCc3ccccc3O)cc2)s1`, for which the “hERG current change (%, negative = inhibition) at 10uM” value is recorded as 31.3%.

As for `Cc1ccc2nc(-c3cccnc3)oc2c1`, the “hERG current change (%, negative = inhibition) at 10uM” value worked out at 5.22%.

For the compound `O=C(CNS(=O)(=O)/C=C/c1ccccc1)OCC(=O)N1CCC(Cc2ccccc2)CC1`, the “hERG current change (%, negative = inhibition) at 10uM” value is reported as -14.4%.

On to `CCOC(=O)C1CCN(S(=O)(=O)c2nc3nc(C)cc(C)n3n2)CC1`, for which the “hERG current change (%, negative = inhibition) at 10uM” value is recorded as -12.4%.

On to `CCn1c(=O)c2c3c(sc2n2c(SCc4ccc(F)cc4)nnc12)CCCC3`, for which the “hERG current change (%, negative = inhibition) at 10uM” value is -3.54%.

As to `CCOC(=O)C1=NN(c2ccccc2)C2(S1)SC(C(C)=O)=C(C)N2c1ccccc1` (stereo not shown), the “hERG current change (%, negative = inhibition) at 10uM” value came out at 8.42%.

For the compound `COc1ccccc1N1CCN(C(=O)c2cc3c(C)nc4ccccc4c3o2)CC1`, the “hERG current change (%, negative = inhibition) at 10uM” value was -33%.

As for `CCC(Cc1ccccc1)NC(=O)C1CCCCC1` (stereo not shown), the “hERG current change (%, negative = inhibition) at 10uM” value is reported as 1.82%.

`O=C1CC(c2ccco2)c2ccc3ccccc3c2N1` (stereo not shown): the “hERG current change (%, negative = inhibition) at 10uM” value is recorded as -5.31%.

With `COc1ccc(CC(=O)Nc2nc(C)cs2)cc1`, the “hERG current change (%, negative = inhibition) at 10uM” value was 3.2%.

Consider `Cc1nc(Cl)c(C(=O)NCc2ccccc2)c(C)c1[N+](=O)[O-]`, for which the “hERG current change (%, negative = inhibition) at 10uM” value is recorded as 8.86%.

`CSc1ccc2nnc(-c3cccc(F)c3)n2n1`: the “hERG current change (%, negative = inhibition) at 10uM” value is given as -27.9%.

Consider `CC12CCC(=O)N1C(C(=O)Nc1nc(-c3cc(F)ccc3F)cs1)CS2` (stereo not shown), for which the “hERG current change (%, negative = inhibition) at 10uM” value stood at 0.403%.

As for `Cc1ccc(N(CC(=O)N2CCc3ccccc32)C2=NC(=O)CS2)cc1`, the “hERG current change (%, negative = inhibition) at 10uM” value is -26.7%.

As to `Cc1ccc(F)c(NC(=O)c2c(-c3ccccc3)noc2C)c1`, the “hERG current change (%, negative = inhibition) at 10uM” value worked out at 7.17%.

`CSc1nc2c(c(=O)[nH]1)C(c1cccc(Cl)c1)CC(=O)N2` (stereo not shown): the “hERG current change (%, negative = inhibition) at 10uM” value is -1.08%.

With `COc1ccc(/C=N/NC(=O)CNS(=O)(=O)c2ccc(C)cc2)cc1`, the “hERG current change (%, negative = inhibition) at 10uM” value turned out to be 8.76%.

`COc1ccccc1CNC(=O)Cn1ccsc1=N.Cl`: the “hERG current change (%, negative = inhibition) at 10uM” value was -1.4%.

As to `Cc1ccc(C)c(S(=O)(=O)C(C#N)c2nc3ccccc3nc2N2CCCC2)c1` (stereo not shown), the “hERG current change (%, negative = inhibition) at 10uM” value was -4.16%.

With `CC(C)OCC(O)CSc1ccccn1` (stereo not shown), the “hERG current change (%, negative = inhibition) at 10uM” value is on record as -10.2%.

`Cc1ccc(C(=O)c2coc3ccc(OCC(=O)O)cc23)cc1`: the “hERG current change (%, negative = inhibition) at 10uM” value came out at 2.16%.

On to `CCCCc1cc(=O)oc2cc(OCc3cc(OC)c(OC)c(OC)c3)c(Cl)cc12`, for which the “hERG current change (%, negative = inhibition) at 10uM” value turned out to be 23.2%.

Turning to `CCn1c(CCCOc2ccc(Cl)cc2Cl)n[nH]c1=S`, the “hERG current change (%, negative = inhibition) at 10uM” value amounted to 9.95%.

As to `CC(CN(C)C)CN1c2ccccc2Sc2ccccc21.O=C(O)C(O)C(O)C(=O)O` (stereo not shown), the “hERG current change (%, negative = inhibition) at 10uM” value is recorded as -44.6%.

For the compound `COc1cccc(NS(=O)(=O)c2cc3c(cc2C)N(C)CCO3)c1`, the “hERG current change (%, negative = inhibition) at 10uM” value came to 16.4%.
